Data on 37 compounds can be found in patent US9284335B2, “Substituted pyrido[3,2-e][1,2,4]triazolo[1,5-c]pyrimidines, pyrido[2,3-e][1,2,4]triazolo[1,5-c]pyrimidines and/or [1,2,4]triazolo[1,5-c]pteridines for treatment of central nervous system diseases and disorders” (DART NEUROSCIENCE (CAYMAN) LTD., priority 2012, dated 2016).

This assay concerns the target full-length recombinant NH-terminal GST tagged human PDE1b enzyme (Homo sapiens, UniProt Q01064). The experiment in a line: PDE1b inhibitory assay (IMAP TR-FRET). The class given is biochemical. As to conditions: negative log of half-maximal molar inhibitory concentration; FAM-cAMP 200 nM; reported as bins; read-out: PDE1b (pEC50) (converted). Background: In TR-FRET formats the signal depends on donor and acceptor labels being close together.

In the case of `COc1c(F)cc(Cn2c(=O)n3ncnc3c3cc(CN4C[C@@H](C)O[C@@H](C)C4)cnc32)cc1Cl` [Example 131], the EC50 is 100 to 1000 nM. On to `COc1ccc(Cn2c(=O)n3ncnc3c3cc(CN4CCOC(C)C4)cnc32)cc1` (stereo not shown) [Example 45, 6-(4-Methoxybenzyl)-9-((2-methylmorpholino)methyl)pyrido[3,2-e][1,2,4]triazolo[1,5-c]pyrimidin-5(6H)-one], for which the EC50 was under 100 nM. Take `COc1ccc(Cn2c(=O)n3ncnc3c3cc(CN4C[C@@H](C)O[C@@H](C)C4)cnc32)c(F)c1` [Example 93, 9-(((2S,6R)-2,6-Dimethylmorpholino)methyl)-6-(2-fluoro-4-methoxybenzyl)pyrido[3,2-e][1,2,4]triazolo[1,5-c]pyrimidin-5(6H)-one]: the EC50 is under 100 nM. Consider `COc1ccc(Cn2c(=O)n3ncnc3c3cc(N4CCN(C5CC5)CC4)cnc32)cc1` [Example 9, 9-(4-cyclopropylpiperazin-1-yl)-6-(4-methoxybenzyl)pyrido[3,2-e][1,2,4]triazolo[1,5-c]pyrimidin-5(6H)-one], for which the EC50 is 100 to 1000 nM. As for `COc1ccc(Cn2c(=O)n3ncnc3c3cc(CN4C[C@@H](C)O[C@@H](C)C4)cnc32)c(Br)c1` [Example 102], the EC50 was 1000 to 10000 nM.

Take `C[C@@H]1CN(Cc2cnc3c(c2)c2ncnn2c(=O)n3Cc2ccc3cnn(C)c3c2)C[C@H](C)O1` [Example 104, 9-(((2S,6R)-2,6-Dimethylmorpholino)methyl)-6-((1-methyl-1H-indazol-6-yl)methyl)pyrido[3,2-e][1,2,4]triazolo[1,5-c]pyrimidin-5(6H)-one]: the EC50 is over 10000 nM. For `C[C@@H]1CN(Cc2cnc3c(c2)c2ncnn2c(=O)n3Cc2ccc(Cl)c(F)c2)C[C@H](C)O1` [Example 114], the EC50 was 100 to 1000 nM.

For `COc1ccc(Cn2c(=O)n3ncnc3c3cc(CN4CCOCC4(C)C)cnc32)cc1` [Example 38, 9-((3,3-Dimethylmorpholino)methyl)-6-(4-methoxybenzyl)pyrido[3,2-e][1,2,4]triazolo[1,5-c]pyrimidin-5(6H)-one], the EC50 is 100 to 1000 nM. For `C[C@@H]1CN(Cc2cnc3c(c2)c2ncnn2c(=O)n3Cc2cccc(C#N)c2)C[C@H](C)O1` [Example 97, 3-((9-(((2S,6R)-2,6-Dimethylmorpholino)methyl)-5-oxopyrido[3,2-e][1,2,4]triazolo[1,5-c]pyrimidin-6(5H)-yl)methyl)benzonitrile], the EC50 was over 10000 nM. As for `COc1ccc(Cn2c(=O)n3ncnc3c3ccc(CNCC4(C)COC4)nc32)cc1` [Example 74, 6-(4-Methoxybenzyl)-8-((((3-methyloxetan-3-yl)methyl)amino)methyl)pyrido[3,2-e][1,2,4]triazolo[1,5-c]pyrimidin-5(6H)-one], the EC50 was 1000 to 10000 nM. As for `COc1ccc(Cn2c(=O)n3ncnc3c3cc(CN4CC5CC4CO5)cnc32)cc1` (stereo not shown) [Example 34, 9-(2-Oxa-5-azabicyclo[2.2.1]heptan-5-ylmethyl)-6-(4-methoxybenzyl)pyrido[3,2-e][1,2,4]triazolo[1,5-c]pyrimidin-5(6H)-one], the EC50 was 100 to 1000 nM. Turning to `C[C@@H]1CN(Cc2cnc3c(c2)c2ncnn2c(=O)n3Cc2ccc(OC(F)F)cc2)C[C@H](C)O1` [Example 126], the EC50 is 100 to 1000 nM.

On to `COc1ccc(Cn2c(=O)n3ncnc3c3cc(CCNC(C)c4ccccc4)cnc32)cc1` (stereo not shown) [Example 29, 6-(4-Methoxybenzyl)-9-(2-((1-phenylethyl)amino)ethyl)pyrido[3,2-e][1,2,4]triazolo[1,5-c]pyrimidin-5(6H)-one], for which the EC50 is 100 to 1000 nM.

On to `C[C@@H]1CN(Cc2cnc3c(c2)c2ncnn2c(=O)n3Cc2ccc(Cl)c(OC(F)(F)F)c2)C[C@H](C)O1` [Example 152], for which the EC50 is over 10000 nM.

For `C[C@@H]1CN(Cc2cnc3c(c2)c2ncnn2c(=O)n3Cc2ccc(I)cc2)C[C@H](C)O1` [Example 129, 9-(((2S,6R)-2,6-Dimethylmorpholino)methyl)-6-(4-iodobenzyl)pyrido[3,2-e][1,2,4]triazolo[1,5-c]pyrimidin-5(6H)-one], the EC50 is 100 to 1000 nM. In the case of `COc1ccc(Cn2c(=O)n3ncnc3c3nc(CN4CCC(OC)CC4)cnc32)cc1` [Example 165] it was 100 to 1000 nM; in that of `C[C@@H]1CN(Cc2cnc3c(c2)c2ncnn2c(=O)n3Cc2ccc(OC(F)(F)F)cc2)C[C@H](C)O1` [Example 89, 9-(((2S,6R)-2,6-Dimethylmorpholino)methyl)-6-(4-(trifluoromethoxy)benzyl)pyrido[3,2-e][1,2,4]triazolo[1,5-c]pyrimidin-5(6H)-one], 1000 to 10000 nM; in that of `Cc1ccc(Cn2c(=O)n3ncnc3c3cc(CN4C[C@@H](C)O[C@@H](C)C4)cnc32)cc1C` [Example 158], 100 to 1000 nM.

With `COc1ccc(Cn2c(=O)n3ncnc3c3cc(CN4CCSCC4)cnc32)cc1` [Example 23, 6-(4-Methoxybenzyl)-9-(thiomorpholinomethyl)pyrido[3,2-e][1,2,4]triazolo[1,5-c]pyrimidin-5(6H)-one], the EC50 is 100 to 1000 nM. Take `COc1ccc(Cn2c(=O)n3ncnc3c3cc(N4CCN(S(C)(=O)=O)CC4)cnc32)cc1` [Example 19, 6-(4-Methoxybenzyl)-9-(4-(methylsulfonyl)piperazin-1-yl)pyrido[3,2-e][1,2,4]triazolo[1,5-c]pyrimidin-5(6H)-one]: the EC50 is 100 to 1000 nM.

For the compound `COc1ccc(Cn2c(=O)n3ncnc3c3cc(CO)cnc32)cc1` [Example 33, 9-(Hydroxymethyl)-6-(4-methoxybenzyl)pyrido[3,2-e][1,2,4]triazolo[1,5-c]pyrimidin-5(6H)-one], the EC50 is 100 to 1000 nM.

Regarding `CCOc1ccc(Cn2c(=O)n3ncnc3c3cc(CN4C[C@@H](C)O[C@@H](C)C4)cnc32)c(F)c1F` [Example 155], the EC50 was 1000 to 10000 nM. For the compound `C[C@@H]1CN(Cc2cnc3c(c2)c2ncnn2c(=O)n3Cc2cc(F)cc(F)c2)C[C@H](C)O1` [Example 101], the EC50 was 1000 to 10000 nM.

In the case of `COc1ccc(Cn2c(=O)n3ncnc3c3cc(CN4CCOCC4C)cnc32)cc1` (stereo not shown) [Example 46, 6-(4-Methoxybenzyl)-9-((3-methylmorpholino)methyl)pyrido[3,2-e][1,2,4]triazolo[1,5-c]pyrimidin-5(6H)-one], the EC50 is 100 to 1000 nM. Regarding `C[C@@H]1CN(Cc2cnc3c(c2)c2ncnn2c(=O)n3Cc2ccccc2)C[C@H](C)O1` [Example 157, 6-Benzyl-9-(((2R,6S)-2,6-dimethylmorpholino)methyl)pyrido[3,2-e][1,2,4]triazolo[1,5-c]pyrimidin-5(6H)-one], the EC50 is 100 to 1000 nM. As to `COc1ccc(Cn2c(=O)n3ncnc3c3cc(CN4CCCN(C)CC4)cnc32)cc1` [Example 48, 6-(4-Methoxybenzyl)-9-((4-methyl-1,4-diazepan-1-yl)methyl)pyrido[3,2-e][1,2,4]triazolo[1,5-c]pyrimidin-5(6H)-one], the EC50 was 1000 to 10000 nM. For the compound `C[C@@H]1CN(Cc2cnc3c(c2)c2ncnn2c(=O)n3Cc2ccc(F)cc2)C[C@H](C)O1` [Example 91, 9-(((2S,6R)-2,6-Dimethylmorpholino)methyl)-6-(4-fluorobenzyl)pyrido[3,2-e][1,2,4]triazolo[1,5-c]pyrimidin-5(6H)-one], the EC50 is 100 to 1000 nM.

Take `COc1ccc(Cn2c(=O)n3ncnc3c3cc(CN(C)C4CCCCC4)cnc32)cc1` [Example 51, 9-((Cyclohexyl(methyl)amino)methyl)-6-(4-methoxybenzyl)pyrido[3,2-e][1,2,4]triazolo[1,5-c]pyrimidin-5(6H)-one]: the EC50 was 1000 to 10000 nM. For `Cc1cc(Cn2c(=O)n3ncnc3c3cc(CN4C[C@@H](C)O[C@@H](C)C4)cnc32)ccc1F` [Example 90, 9-(((2S,6R)-2,6-Dimethylmorpholino)methyl)-6-(4-fluoro-3-methylbenzyl)pyrido[3,2-e][1,2,4]triazolo[1,5-c]pyrimidin-5(6H)-one], the EC50 was 100 to 1000 nM. With `COc1ccc(Cn2c(=O)n3ncnc3c3ccc(COc4ccccc4)nc32)cc1` [Example 121, 6-(4-Methoxybenzyl)-8-(phenoxymethyl)pyrido[3,2-e][1,2,4]triazolo[1,5-c]pyrimidin-5(6H)-one], the EC50 was 100 to 1000 nM. As for `C[C@@H]1CN(Cc2cnc3c(c2)c2ncnn2c(=O)n3Cc2ccc(F)c(F)c2F)C[C@H](C)O1` [Example 149, 9-(((2R,6S)-2,6-Dimethylmorpholino)methyl)-6-(2,3,4-trifluorobenzyl)pyrido[3,2-e][1,2,4]triazolo[1,5-c]pyrimidin-5(6H)-one], the EC50 is 1000 to 10000 nM. In the case of `COCCN(C)Cc1cnc2c(c1)c1ncnn1c(=O)n2Cc1ccc(OC)cc1` [Example 61] it was 100 to 1000 nM. `CCOc1ccc(Cn2c(=O)n3ncnc3c3cc(CN4C[C@@H](C)O[C@@H](C)C4)cnc32)cc1` [Example 117, 9-(((2S,6R)-2,6-Dimethylmorpholino)methyl)-6-(4-ethoxybenzyl)pyrido[3,2-e][1,2,4]triazolo[1,5-c]pyrimidin-5(6H)-one]: the EC50 is 100 to 1000 nM.

Take `C[C@@H]1CN(Cc2cnc3c(c2)c2ncnn2c(=O)n3Cc2ccc(F)c(Br)c2)C[C@H](C)O1` [Example 94, 6-(3-Bromo-4-fluorobenzyl)-9-(((2S,6R)-2,6-dimethylmorpholino)methyl)pyrido[3,2-e][1,2,4]triazolo[1,5-c]pyrimidin-5(6H)-one]: the EC50 was 100 to 1000 nM. For `COc1ccc(Cn2c(=O)n3ncnc3c3cc(CN4C[C@@H](C)O[C@@H](C)C4)cnc32)c(F)c1F` [Example 108, 6-(2,3-Difluoro-4-methoxybenzyl)-9-(((2S,6R)-2,6-dimethylmorpholino)methyl)pyrido[3,2-e][1,2,4]triazolo[1,5-c]pyrimidin-5(6H)-one], the EC50 is 100 to 1000 nM. On to `COc1ccc(Cn2c(=O)n3ncnc3c3cc(CN4CCOCC4C)cnc32)c(F)c1F` (stereo not shown) [Example 168, 6-(2,3-Difluoro-4-methoxybenzyl)-9-((3-methylmorpholino)methyl)pyrido[3,2-e][1,2,4]triazolo[1,5-c]pyrimidin-5(6H)-one], for which the EC50 is 100 to 1000 nM. Take `COc1ccc(Cn2c(=O)n3ncnc3c3cc(CN4CCN5C(=O)OCC5C4)cnc32)cc1` (stereo not shown) [Example 62, 7-((6-(4-Methoxybenzyl)-5-oxo-5,6-dihydropyrido[3,2-e][1,2,4]triazolo[1,5-c]pyrimidin-9-yl)methyl)tetrahydro-1H-oxazolo[3,4-a]pyrazin-3(5H)-one]: the EC50 was under 100 nM.
